Experimental data as given in the supplement of paper PMC4604168 (melanoma cell lines).
Some of the results follow. Many values rest on one well or one pass, so single values are uncertain.

Test system: SkMel28
Assay: cell count relative to DMSO control; melanoma cells; higher = more viable cells
Conditions: library dose: standard library concentration; 72 h
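Further: cells treated in 1,536-well plates, then fixed and DAPI-stained, with nuclei counted from automated high-throughput microscope images.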

Compound | cell count [%]
CS(=O)(=O)c1ccc(C(=O)Nc2ccc(Cl)c(-c3ccccn3)c2)c(Cl)c1 [vismodegib] + Cn1c(Nc2ccc(C(F)(F)F)cc2)nc2cc(Oc3ccnc(-c4ncc(C(F)(F)F)[nH]4)c3)ccc21 [CHIR265] (first compound 5 µM, partner dose 0.4 µM) | 35.9
CS(=O)(=O)c1ccc(C(=O)Nc2ccc(Cl)c(-c3ccccn3)c2)c(Cl)c1 [vismodegib] + O=C(CCCCCCC(=O)Nc1ccccc1)NO [vorinostat] (first compound 5 µM, partner dose 0.4 µM) | 52.1
CS(=O)(=O)c1ccc(C(=O)Nc2ccc(Cl)c(-c3ccccn3)c2)c(Cl)c1 [vismodegib] + Cc1cc(Nc2cc(N3CCN(C)CC3)nc(/C=C/c3ccccc3)n2)n[nH]1 [ENMD2076] (first compound 5 µM, partner dose 0.2 µM) | 92.7
CS(=O)(=O)c1ccc(C(=O)Nc2ccc(Cl)c(-c3ccccn3)c2)c(Cl)c1 [vismodegib] + OCc1c[nH]c2ccccc12 [Indole-3-carbinol] (first compound 5 µM, partner dose 4 µM) | 96.7
CN(c1ncccc1CNc1nc(Nc2ccc3c(c2)CC(=O)N3)ncc1C(F)(F)F)S(C)(=O)=O + C[C@]1(c2nc3c(C(N)=O)cccc3[nH]2)CCCN1 [Veliparib] (first compound 0.4 µM, partner dose 7 µM) | 60.7
C=C(c1ccc(C(=O)O)cc1)c1cc2c(cc1C)C(C)(C)CCC2(C)C [Bexarotene] + Cc1ccc(NC(=O)c2cccc(N(C)C)c2)cc1NC(=O)c1ccc(O)cc1 [ZM336372] (first compound 10 µM, partner dose 10 µM) | 65.4
CCCS(=O)(=O)Nc1ccc(F)c(C(=O)c2c[nH]c3ncc(Cl)cc23)c1F + CC1(C)NC(=O)N(c2ccc([N+](=O)[O-])c(C(F)(F)F)c2)C1=O [nilutamide] (first compound 0.4 µM, partner dose 5 µM) | 53.1
CS(=O)(=O)c1ccc(C(=O)Nc2ccc(Cl)c(-c3ccccn3)c2)c(Cl)c1 [vismodegib] + C[C@@H]1CCN(C(=O)CC#N)C[C@@H]1N(C)c1ncnc2[nH]ccc12 [CP690550] (first compound 5 µM, partner dose 5 µM) | 76.3
NC1(c2ccc(-c3nc4ccn5c(=O)[nH]nc5c4cc3-c3ccccc3)cc2)CCC1 + CN(NC(=O)CC(=O)NN(C)C(=S)c1ccccc1)C(=S)c1ccccc1 [STA4783] (first compound 2 µM, partner dose 0.03 µM) | 51.9
CS(=O)(=O)c1ccc(C(=O)Nc2ccc(Cl)c(-c3ccccn3)c2)c(Cl)c1 [vismodegib] + Nc1ccn([C@@H]2O[C@H](CO)[C@@H](O)C2(F)F)c(=O)n1 [gemcitabine] (first compound 5 µM, partner dose 0.002 µM) | 143
CCCS(=O)(=O)Nc1ccc(F)c(C(=O)c2c[nH]c3ncc(Cl)cc23)c1F + O=C(CCCCCCC(=O)Nc1ccccc1)NO [vorinostat] (first compound 0.4 µM, partner dose 0.4 µM) | 40
CN(c1ncccc1CNc1nc(Nc2ccc3c(c2)CC(=O)N3)ncc1C(F)(F)F)S(C)(=O)=O + Cn1nnc2c(C(N)=O)ncn2c1=O [temozolomide] (first compound 0.4 µM, partner dose 10 µM) | 32.5
CCCS(=O)(=O)Nc1ccc(F)c(C(=O)c2c[nH]c3ncc(Cl)cc23)c1F + COc1ccc(Cl)c(Nc2nc3ccccc3nc2NS(=O)(=O)c2cccc(NC(=O)C(C)(C)N)c2)c1 [XL147] (first compound 0.4 µM, partner dose 4 µM) | 43.8
NC1(c2ccc(-c3nc4ccn5c(=O)[nH]nc5c4cc3-c3ccccc3)cc2)CCC1 + Cn1c(=O)n(-c2ccc(C(C)(C)C#N)cc2)c2c3cc(-c4cnc5ccccc5c4)ccc3ncc21 [NVP-BEZ235] (first compound 2 µM, partner dose 0.02 µM) | 39.1
NC1(c2ccc(-c3nc4ccn5c(=O)[nH]nc5c4cc3-c3ccccc3)cc2)CCC1 + Cc1nc(Nc2ncc(C(=O)Nc3c(C)cccc3Cl)s2)cc(N2CCN(CCO)CC2)n1 [dasatanib] (first compound 2 µM, partner dose 0.02 µM) | 49.9
NC1(c2ccc(-c3nc4ccn5c(=O)[nH]nc5c4cc3-c3ccccc3)cc2)CCC1 + O=C(Nc1cccc(Cl)c1)Nc1ncc(CCNc2ncnc3ccsc23)s1 [SNS314] (first compound 2 µM, partner dose 0.004 µM) | 32.7
CCCS(=O)(=O)Nc1ccc(F)c(C(=O)c2c[nH]c3ncc(Cl)cc23)c1F + Cc1ccc(NC(=O)c2cccc(N(C)C)c2)cc1NC(=O)c1ccc(O)cc1 [ZM336372] (first compound 0.4 µM, partner dose 10 µM) | 61.5
CCCS(=O)(=O)Nc1ccc(F)c(C(=O)c2c[nH]c3ncc(Cl)cc23)c1F + Nc1nc(F)nc2c1ncn2[C@@H]1O[C@H](CO)[C@@H](O)[C@@H]1O [fludarabine] (first compound 0.4 µM, partner dose 1 µM) | 1.34
CS(=O)(=O)c1ccc(C(=O)Nc2ccc(Cl)c(-c3ccccn3)c2)c(Cl)c1 [vismodegib] + C[C@@H](Oc1cc(-c2cnn(C3CCNCC3)c2)cnc1N)c1c(Cl)ccc(F)c1Cl [Crizotinib] (first compound 5 µM, partner dose 1 µM) | 71.5
C=C(c1ccc(C(=O)O)cc1)c1cc2c(cc1C)C(C)(C)CCC2(C)C [Bexarotene] + CC1(C)NC(=O)N(c2ccc([N+](=O)[O-])c(C(F)(F)F)c2)C1=O [nilutamide] (first compound 10 µM, partner dose 5 µM) | 108
NC1(c2ccc(-c3nc4ccn5c(=O)[nH]nc5c4cc3-c3ccccc3)cc2)CCC1 + C[C@@H]1CCN(C(=O)CC#N)C[C@@H]1N(C)c1ncnc2[nH]ccc12 [CP690550] (first compound 2 µM, partner dose 5 µM) | 73
CN(c1ncccc1CNc1nc(Nc2ccc3c(c2)CC(=O)N3)ncc1C(F)(F)F)S(C)(=O)=O + CC(=O)c1c(C)c2cnc(Nc3ccc(N4CCNCC4)cn3)nc2n(C2CCCC2)c1=O [palbociclib] (first compound 0.4 µM, partner dose 0.2 µM) | 48.4
C=C(c1ccc(C(=O)O)cc1)c1cc2c(cc1C)C(C)(C)CCC2(C)C [Bexarotene] + CN(C)S(=O)(=O)c1ccc2c(c1)/C(=C/c1cc3c([nH]1)CCCC3)C(=O)N2 [SU6656] (first compound 10 µM, partner dose 2 µM) | 55.5
CCCS(=O)(=O)Nc1ccc(F)c(C(=O)c2c[nH]c3ncc(Cl)cc23)c1F + O=C(O)c1ccc(-c2c[nH]c3ncc(-c4ccccc4)cc23)cc1C1CCCC1 [GSK650394] (first compound 0.4 µM, partner dose 0.8 µM) | 47
CS(=O)(=O)c1ccc(C(=O)Nc2ccc(Cl)c(-c3ccccn3)c2)c(Cl)c1 [vismodegib] + CCCS(=O)(=O)Nc1ccc(F)c(C(=O)c2c[nH]c3ncc(Cl)cc23)c1F [PLX4720] (first compound 5 µM, partner dose 0.4 µM) | 61.8
